Data taken from PubChem BioAssay AID1468 (National Center for Advancing Translational Sciences (NCATS), 2008).
Hit rate of the full screen: of about 280,000 compounds, about 1,100 (0.39%) were called active. This list was built around the results that the source calls inconclusive (neither active nor inactive); the mix of calls is not that of the screen. The call rests on the fitted dose curve; in most records, active means well fitted inhibition curve with a large enough effect; inconclusive means small, poorly fitted or top-dose-only effect, or effect the other way; inactive means flat fitted curve, though single readings scatter. Potencies beside an inconclusive call are fits to weak or partial responses and may not hold up.

Molecular target: Microtubule-associated protein tau (Homo sapiens) (UniProt P10636)
Test: qHTS for Inhibitors of Tau Fibril Formation, Fluorescence Polarization; further: nearly all actives have a fitted effect of over 55% in size
Settings: K18 P301L tau heparin fibrillization, Alexa594 FP, 6 h; series mostly up to 57.7 µM; activity, negative = inhibition: at the top concentration
Procedure, shortened: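 Quantitative HTS format: compounds meet 15 uM recombinant K18 P301L tau and Alexa 594-tau tracer in 100 mM sodium acetate pH 7; 20 uM heparin triggers fibrillization at 37 C over 6 hr; FP gives the signal.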
On the % scale 0 is the no-effect control and ±100 the full control effect; potency means the concentration at half of the fitted maximal effect; tags describe the fitted curve by direction and shape.

UniProt P10636, sequence (P10636 whole entry, looked up): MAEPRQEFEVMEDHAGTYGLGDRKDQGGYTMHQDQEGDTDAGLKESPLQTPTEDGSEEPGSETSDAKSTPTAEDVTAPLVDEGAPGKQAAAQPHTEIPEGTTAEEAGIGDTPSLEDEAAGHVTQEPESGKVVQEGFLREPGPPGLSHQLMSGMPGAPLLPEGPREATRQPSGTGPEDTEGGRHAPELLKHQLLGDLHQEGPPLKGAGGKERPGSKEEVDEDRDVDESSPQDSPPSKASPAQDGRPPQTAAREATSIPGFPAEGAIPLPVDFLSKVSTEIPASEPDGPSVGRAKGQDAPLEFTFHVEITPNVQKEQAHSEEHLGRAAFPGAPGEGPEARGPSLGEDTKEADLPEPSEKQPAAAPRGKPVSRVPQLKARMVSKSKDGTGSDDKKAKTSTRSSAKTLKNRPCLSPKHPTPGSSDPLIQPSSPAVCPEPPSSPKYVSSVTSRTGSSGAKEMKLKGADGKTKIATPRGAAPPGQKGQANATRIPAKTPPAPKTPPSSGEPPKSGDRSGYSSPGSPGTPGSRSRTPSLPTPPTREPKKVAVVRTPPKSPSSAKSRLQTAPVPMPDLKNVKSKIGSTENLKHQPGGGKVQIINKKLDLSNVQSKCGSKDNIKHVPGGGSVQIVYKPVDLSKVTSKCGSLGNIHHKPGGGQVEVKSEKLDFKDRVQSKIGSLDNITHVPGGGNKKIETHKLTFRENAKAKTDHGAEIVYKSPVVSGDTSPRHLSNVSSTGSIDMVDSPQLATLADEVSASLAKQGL

Potency, inconclusive:
CCOc1ccc(-c2nc(C#N)c(NCC3CCCO3)o2)cc1 (configuration not stated) 0.316 µM [activator, full curve, poor fit]
CC1=C(C)/C(=N\OC(=O)/C=C/c2ccccc2)C=CC1=O 10 µM [inhibitor, partial curve]
N#Cc1ccc(NC(=O)Nc2cccc(C#N)c2)cc1 39.8 µM [inhibitor, single point]
C/C(CCN1CCc2nc(-c3ccccc3)c(-c3ccccc3)cc2C1)=N\O[C@@H](C)CN1CCCc2nc(C)c(C)cc21 1 µM [inhibitor, single point]
CCN(CCCNC(=O)c1cc2cc3ccc(C)cc3nc2s1)c1ccccc1 3.55 µM [activator, single point]
O=S(=O)(c1ccc(N=C2NN=C(c3cc(F)ccc3F)CS2)cc1)N1CCOCC1 7.94 µM [inhibitor, full curve]
Cc1ccc(NC(=O)c2oc3ccc(S(=O)(=O)N(C)C4CCCCC4)cc3c2C)cc1Cl 12.6 µM [inhibitor, partial curve]
CS(=O)(=O)c1ccc2nc(NC(=O)c3ccc(NS(=O)(=O)c4ccc(F)c(F)c4)cc3)sc2c1 28.2 µM [inhibitor, single point]
N#CCSc1nc(N)c(C#N)c(C2CCCCC2)c1C#N 28.2 µM [inhibitor, single point]
O=C(Cc1cccs1)N/N=C/C=C/c1ccco1 28.2 µM [inhibitor, partial curve]
COc1ccc(CCNc2ncnc3c2cnn3-c2cccc(Cl)c2)cc1 10 µM [inhibitor, partial curve]
CC1(C)CC(=O)c2cc(-c3nc(-c4ccc(Cl)cc4)cs3)c(=O)n(-c3ccc(Cl)cc3)c2C1 22.4 µM [inhibitor, partial curve, poor fit]
COc1cccc(C(=O)c2sc3nc(-c4ccccc4)cc(C(F)(F)F)c3c2N)c1 31.6 µM [inhibitor, single point]
Cc1csc(SCC(=O)NC2CCCCC2)n1 7.94 µM [inhibitor, partial curve]
CCCCC(=O)/C=C/n1c(=S)oc2ccccc21 1.58 µM [inhibitor, partial curve]
O=C(CSc1ccccc1)Nc1nnc(COc2ccc(Cl)cc2)s1 35.5 µM [inhibitor, partial curve]
COc1cc(C)ccc1OCCSc1nc2ccc(NC(=O)c3ccc(F)cc3)cc2s1 14.1 µM [inhibitor, partial curve]
N#Cc1ccccc1NC(=O)Cn1cnc2onc(-c3cccc(F)c3)c2c1=O 25.1 µM [inhibitor, partial curve]
COc1cc(OC)cc(C(=O)Nc2ccc3nc(N4CCCCC4)cc(C)c3c2)c1 11.2 µM [activator, partial curve]
N#CC1=C(SCC(N)=O)NC2=C(C(=O)c3ccccc32)C1c1ccc(Cl)cc1 (configuration not stated) 28.2 µM [inhibitor, partial curve]
Cc1ccc(NC(=S)Nc2ccc3cn[nH]c3c2)cc1 20 µM [inhibitor, single point]
COc1ccc(-c2cc(-c3ccc(OC)cc3)c(C#N)c(SC)n2)cc1 7.08 µM [inhibitor, partial curve]
COc1ccc(/C=N/OCC(=O)N=Nc2c(O)[nH]c3ccc(Br)cc23)cc1 0.0251 µM [inhibitor, full curve, poor fit]
Cc1ccc(NS(=O)(=O)c2ccc(C)c(NC(=O)COc3ccc4ccccc4c3)c2)c(C)c1 31.6 µM [inhibitor, single point]
C=C(C)COc1ccc(-c2n[nH]c(C)c2-c2ccc(Br)cc2)c(O)c1 39.8 µM [inhibitor, single point]
CCOC(=O)c1c(NC(C)=O)sc2c1CCC(C=O)=C2Sc1ccccc1 35.5 µM [inhibitor, partial curve, poor fit]
CCCCOc1ccc(C(=O)CCN2CCOCC2)cc1 8.91 µM [activator, partial curve]
Cc1ccc(C)c(CN2C(=O)c3ccccc3S(=O)c3ccc(C(=O)NCc4ccccc4)cc32)c1 (configuration not stated) 44.7 µM [inhibitor, single point]
Oc1ccc(Nc2nc(-c3ccc4ccccc4c3)cs2)cc1 39.8 µM [inhibitor, single point]

activity, negative = inhibition, inactive:
CCOC(=O)c1cc(-c2ccccc2)n(CC(=O)N(C)c2ccc(OC)cc2)c1C -2.65%
C=CCc1cccc2cc(C(=O)Nc3ccc(CC(=O)O)cc3)c(=O)oc12 4.95%
CN(C)CCCn1c(SCC(=O)Nc2sc3c(c2C#N)CCCC3)nnc1-c1ccncc1 8.1%
Cc1noc(C)c1CSc1nnc(-c2ccncc2)n1-c1cccc(Cl)c1C -2.27%
COC(=O)C1(C(C)=O)CC2=CC[C@@H]3C(=O)N(c4ccccc4)C(=O)[C@@H]3[C@@H]2Cc2ccccc2[C@@H]1C[N+](=O)[O-] (some centres not stated) 3.61%
Cc1ccc(/C=C/C(=O)Nc2nnc(SCc3ccc(C#N)cc3)s2)o1 -4.89%
CCOC(=O)C1CCCN(c2ccc(NC(=O)c3snc4c(=O)[nH]cnc34)cc2)C1 (configuration not stated) 12.4%
CSCCNC(=O)c1ccc(C(C)(C)C)cc1 4.03%
COC(=O)Cc1c(O)ccn(Cc2ccc3c(c2)OCO3)c1=O 4.52%
COc1ccc(Cl)cc1NC(=O)CN(C(=O)c1ccco1)C1CCCCC1 -0.389%
COc1ccc(-c2c3c(=O)n(C)c(=O)n(C)c3cn2-c2ccccc2O)cc1 -9.38%
Cc1c(C(=O)NCc2ccccc2Br)oc2c1-c1[nH]ncc1CC2 -2.83%
CCOC(=O)C(CC)Sc1ccc2nnc(CCNS(=O)(=O)c3ccc(C)cc3)n2n1 (configuration not stated) 0.779%
